{"source": "paper PMC6919601", "about": "“Identification of Plasmodium dipeptidyl aminopeptidase allosteric inhibitors by high throughput screening” (PLoS ONE, 2019)", "note": "Out of some 110,000 compounds screened, about 230 (0.21%) showed an effect of 50% or more. The list shows a part of the results.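 Further: 30 min substrate incubation versus DMSO and 10 µM JCP410 controls.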"}
{"target": "DPAP1 (Plasmodium falciparum, UniProt Q8IIJ9)", "sequence (Q8IIJ9 whole entry, looked up)": "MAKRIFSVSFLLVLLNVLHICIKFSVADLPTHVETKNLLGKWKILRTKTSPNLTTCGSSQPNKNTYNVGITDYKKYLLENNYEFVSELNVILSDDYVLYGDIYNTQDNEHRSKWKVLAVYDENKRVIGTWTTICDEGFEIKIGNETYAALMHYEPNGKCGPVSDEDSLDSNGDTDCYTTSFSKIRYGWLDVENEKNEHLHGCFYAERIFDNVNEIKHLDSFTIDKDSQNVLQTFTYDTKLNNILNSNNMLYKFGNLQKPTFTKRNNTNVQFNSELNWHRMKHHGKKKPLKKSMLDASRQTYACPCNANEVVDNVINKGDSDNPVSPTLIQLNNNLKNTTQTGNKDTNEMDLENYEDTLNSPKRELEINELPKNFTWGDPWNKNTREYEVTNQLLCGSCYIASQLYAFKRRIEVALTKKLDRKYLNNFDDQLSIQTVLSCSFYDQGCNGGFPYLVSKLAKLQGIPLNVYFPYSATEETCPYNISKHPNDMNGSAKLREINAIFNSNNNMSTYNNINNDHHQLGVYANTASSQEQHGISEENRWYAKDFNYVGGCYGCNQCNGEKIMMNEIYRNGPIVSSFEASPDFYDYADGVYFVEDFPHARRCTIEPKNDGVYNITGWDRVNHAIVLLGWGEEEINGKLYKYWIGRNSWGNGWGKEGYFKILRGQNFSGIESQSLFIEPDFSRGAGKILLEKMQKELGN", "assay": "primary screen, percent inhibition; read by cleavage of a fluorogenic dipeptide substrate; higher = more effect of the substance", "set-up": "species or system P. falciparum D10 trophozoite lysates; single well", "units": {"% Inhibition @ 10 uM": "%"}}
{"smiles": "CC1CCCN(C(=O)COc2ccc(F)cc2)C1", "note": "(stereo not shown)", "% Inhibition @ 10 uM": -5.6}
{"smiles": "O=C(c1ccc(Cl)cc1)N(Cc1ccccc1F)C1CCS(=O)(=O)C1", "note": "(stereo not shown)", "% Inhibition @ 10 uM": -1.35}
{"smiles": "CCc1c(C)sc(NC(=O)c2ccc(Cl)cc2Cl)c1C(N)=O", "% Inhibition @ 10 uM": -1.04}
{"smiles": "CN(c1ccc(C(=O)N2CCCCCC2)cc1)S(C)(=O)=O", "% Inhibition @ 10 uM": -0.95}
{"smiles": "O=C(Cn1nc(Cc2ccncc2)c2ccccc2c1=O)NCCCN(Cc1ccco1)C1CCCC1", "% Inhibition @ 10 uM": 4.41}
{"smiles": "COc1ccc(CN2CCN(c3ccccc3F)CC2)cc1", "% Inhibition @ 10 uM": 3}
{"smiles": "Cc1c(Cl)cccc1-n1nc(C)c2c(C)cc(=O)n(CC(=O)NC(C)c3ccccc3)c21", "note": "(stereo not shown)", "% Inhibition @ 10 uM": 3.16}
{"smiles": "CN1C(=O)C(=Cc2ccc(OCCOc3ccc(C(C)(C)C)cc3)cc2)C(=O)N(C)C1=O", "% Inhibition @ 10 uM": 3.25}
{"smiles": "CCOC(=O)c1c(NC(=O)N2CC=C(c3c[nH]c4ccccc34)CC2)sc2c1CCCC2", "% Inhibition @ 10 uM": 1.81}
{"smiles": "Cc1cccc(-c2nc(CSCC(=O)NC3CCC(C)CC3)c(C)o2)c1", "note": "(stereo not shown)", "% Inhibition @ 10 uM": 2.37}
{"smiles": "CCN(CC)C(=O)Cn1c2ccccc2c2nc3n(c(=O)c21)CCS3", "% Inhibition @ 10 uM": 1.32}
{"smiles": "COc1cc(CN2CCN(Cc3ccccc3Br)CC2)cc(OC)c1O", "% Inhibition @ 10 uM": -5.93}
{"smiles": "CC1(C)Cc2nc3sc4c(NC5CCCCC5)ncnc4c3cc2CO1", "% Inhibition @ 10 uM": -2.65}
{"smiles": "CC1(C)CC2CC(C)(CN2C(=O)C23CCC(C)(C(=O)O2)C3(C)C)C1", "note": "(stereo not shown)", "% Inhibition @ 10 uM": -3.96}
{"smiles": "CCN1CCN(CC(O)COc2c(C)cc(C)cc2C)CC1", "note": "(stereo not shown)", "% Inhibition @ 10 uM": -4.39}
{"smiles": "CC1NCCn2cccc21", "note": "(stereo not shown)", "% Inhibition @ 10 uM": -6.52}
{"smiles": "N=C1/C(=C\\c2ccc(SCc3ccco3)o2)C(=O)N=C2SC(C(F)(F)F)=NN12", "% Inhibition @ 10 uM": -1.28}
{"smiles": "Cc1n[nH]c(C)c1CCCCOc1ccc(Cl)cc1", "% Inhibition @ 10 uM": -6.44}
{"smiles": "CCOc1ccccc1C(=O)N(Cc1ccc(OC)cc1)Cc1ccco1", "% Inhibition @ 10 uM": 3.88}
{"smiles": "O=C(O)C(Cc1ccccc1)/N=C/C=C(\\O)C(F)(F)F", "note": "(stereo not shown)", "% Inhibition @ 10 uM": 5.98}
{"smiles": "Cc1ccc(C(C)C)c(Oc2nc3ccccn3c(=O)c2/C=C(\\C#N)S(=O)(=O)c2ccccc2)c1", "% Inhibition @ 10 uM": -5.1}
{"smiles": "COC(=O)c1ccc(-n2nnnc2SCc2ccccc2OC)cc1", "% Inhibition @ 10 uM": -4.19}
{"smiles": "COc1ccc(-c2noc(CN(C(=O)c3cccc(Br)c3)C(C)C)n2)cc1", "% Inhibition @ 10 uM": 2.5}
{"smiles": "CN1CCN(c2nc(NCC3CCCO3)c3ccccc3n2)CC1", "note": "(stereo not shown)", "% Inhibition @ 10 uM": -5.29}
{"smiles": "O=C(NC1CCCCCCC1)c1ccc(Br)o1", "% Inhibition @ 10 uM": -0.294}
{"smiles": "COc1cccc2sc(N(CCCN(C)C)C(=O)c3cccc(C)c3)nc12", "% Inhibition @ 10 uM": -0.285}
{"smiles": "CCCOc1ccccc1/C=C1\\SC(N2CCN(C(C)=O)CC2)=NC1=O", "% Inhibition @ 10 uM": -3.06}
{"smiles": "COc1ccc(CNC(=O)CN(c2cc(C)ccc2OC)S(C)(=O)=O)cc1", "% Inhibition @ 10 uM": -2.82}
{"smiles": "CN(c1ccc(C(=O)Nc2ccccc2-c2ccccc2)cc1)S(C)(=O)=O", "% Inhibition @ 10 uM": 3.38}
{"smiles": "Cc1ccc(-c2cc(C(=O)N3CCN(c4ncccn4)CC3)c3ccccc3n2)o1", "% Inhibition @ 10 uM": 3.48}
{"smiles": "O=S(=O)(O)c1ccc2nc(O)c(O)nc2c1", "% Inhibition @ 10 uM": -0.458}
{"smiles": "CCC(O)C#CC(C)(O)CCC=C(C)C", "note": "(stereo not shown)", "% Inhibition @ 10 uM": 3.25}
{"smiles": "O=C(NCCO)/C(=C/c1ccco1)NC(=O)c1cccc(Br)c1", "% Inhibition @ 10 uM": -4.72}
{"smiles": "COc1ccc(NCC(O)Cn2cnc3c2c(=O)n(C)c(=O)n3C)cc1", "note": "(stereo not shown)", "% Inhibition @ 10 uM": 4.49}
{"smiles": "O=C(CNS(=O)(=O)c1ccc(Br)cc1)NCc1ccncc1", "% Inhibition @ 10 uM": 6.71}
{"smiles": "CCCN1C(=O)c2oc3cc(C)cc(C)c3c(=O)c2C1c1cccc(O)c1", "note": "(stereo not shown)", "% Inhibition @ 10 uM": 0.00706}
{"smiles": "c1ccc(OCCN2CCOCC2)cc1", "% Inhibition @ 10 uM": -4.87}
{"smiles": "COc1ccc(CNC(=O)Cn2nc(C(F)(F)F)c3c2CCC3)cc1", "% Inhibition @ 10 uM": 4.08}
{"smiles": "COC(=O)c1cnn2c(O)c3c(nc12)C(=O)N(Cc1ccccc1)C3", "% Inhibition @ 10 uM": -0.256}
{"smiles": "Cc1ccccc1OCC(=O)Nc1ccc(Cl)c(Cl)c1", "% Inhibition @ 10 uM": -0.872}
{"smiles": "CCOCC(=O)NC1CCCc2ccccc21", "note": "(stereo not shown)", "% Inhibition @ 10 uM": 1.17}
{"smiles": "Cc1nnc(SCC(=O)NC2CCCC2)c2nn(-c3ccccc3)c(C)c12", "% Inhibition @ 10 uM": 4.88}
{"smiles": "CCOc1ccc(NC(=O)CSC(=O)c2ccccc2)cc1", "% Inhibition @ 10 uM": -1.06}
{"smiles": "O=C(NCCN1CCCC1)c1ccc(Cl)cc1", "% Inhibition @ 10 uM": 0.5}
{"smiles": "O=C(CSc1ccccc1)Nc1cccc2c1C(=O)N(c1ccccc1)C2=O", "% Inhibition @ 10 uM": 2.37}
{"smiles": "CCOC(=O)c1c(C)[nH]c2cc(Br)c(O)cc12", "% Inhibition @ 10 uM": -2.51}
{"smiles": "O=C(NC1CCCCCCC1)C(Cc1ccccc1)NS(=O)(=O)c1cccc2cccnc12", "note": "(stereo not shown)", "% Inhibition @ 10 uM": 2.6}
{"smiles": "C#CCn1cc(/C=C2\\SC(=O)N(C)C2=O)c2ccccc21", "% Inhibition @ 10 uM": -3.06}
{"smiles": "CCc1ccc(OCC(=O)Nc2ccc(N3CCN(C)CC3)cc2)cc1", "% Inhibition @ 10 uM": -7.15}
{"smiles": "CCCCNC(=O)c1cc2nc(-c3ccccc3)cc(C)n2n1", "% Inhibition @ 10 uM": -5.04}
{"smiles": "O=C1CC(c2ccccc2)CC(=O)C1=CNCC1CCCO1", "note": "(stereo not shown)", "% Inhibition @ 10 uM": -6.59}
{"smiles": "CCN(CC)CCCNC(=O)Nc1cnc2ccccn2c1=O", "% Inhibition @ 10 uM": -3.08}
